# Experimental data from the supplement of paper PMC11417369.
# The list shows a part of the results.
# Tested on: PfHDP1 homeodomain (GST-tagged)
# Assay: gcPBM binding intensity (ln(normalized median fluorescence intensity)); higher = stronger DNA binding
# How it was run: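 GST-tagged P. falciparum DNA-binding domains, expressed in E. coli (about 25 μg on average), were applied for 1 h to an Agilent 4 × 180k array of primer-extended double-stranded 36-bp intergenic genomic probes plus negative controls. The binding buffer was 1× PBS with 1% milk, 0.2 mg/ml BSA, 0.5% salmon testes DNA and 0.03% Triton X-100. Bound protein was detected with Alexa488 anti-GST antibody and scanned at 488 nm. Binding intensity is the highest Masliner-normalised natural-log median intensity across replicate spots of either probe orientation.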
row,Sequence,gcPBM binding intensity (ln)
1,AACATAAGTAATATTTGTACATATATAATAATATAT [XGTACX_site5123],6.43
2,AAGGATCACCCACAAACACACATATATATATATATA [CACACA_site559],9.4
3,TAAATGTGAAATTTTATATTTTATATAATATACAAT [CACACA_negctrl_site76],5.99
4,ATAATATAAATAATTATACACACTTAATATATATAT [CACACA_site2782],8.16
5,GTATGTATGTATGTATGTACGTATTTATTTATTTAA [XGTACX_site726],7.45
6,CAATTCTTAAGTTCTTGTACGAAAAACGACAATTTA [XGTACX_site3890],5.97
7,ACACATATATATATATATATATATATATATATATAT [CACACA_negctrl_site1766],9.38
8,AAGAAAAATAATTAGGGTGAAAATATATAGAGTAAA [TGCATGCA_negctrl_site590],7.06
9,TATTATATAAAATATTTTATTATATCATCTTCTCTA [XGTACX_negctrl_site319],6.34
10,GGTAATAATATGCATAGTACATAATATATATATATA [XGTACX_site6793],8.74
11,AAAAAAATATATATATGTACATAACTTTGTTGTGAT [XGTACX_site5243],6.56
12,TTTGAACATTTTGCAAGTACAAAAAAATAATATATC [XGTACX_site8079],7.08
13,TGTTAAATTATTTATCAGATTATTATTTGTAAATAA [CACACA_negctrl_site1535],6.02
14,TATATATATATATATACACACATATATATATTTTTC [CACACA_site3983],9.35
15,AATACCTATGGAATTAATAATATGTGTACAGACACA [TGCATGCA_negctrl_site547],6.23
16,AACAATGGATTATTCACACATAAAAAAATTCACATT [CACACA_site5437],6.15
17,ATCATTATATTATGGTGTACCCATATATAATTATCA [XGTACX_site551],6.43
18,AATTTAAAGAATTGTAGTACAATGAAATATATATAA [XGTACX_site7970],6.74
19,CATTAAACCGTGGGAGCACACACACCCACCCACCCA [CACACA_site8000],6.91

row,Sequence,gcPBM binding intensity (ln)
1,AACATGCAAACATGCACACAGAAAAAAAAAATATAT [CACACA_site1565],9.37
2,TTACACATACATATGTGGGAAAATATTGCTACATAT [CACACA_negctrl_site463],6.76
3,GGAACTTAAAAAAAATGTACTTATAAAAAAGGAAAT [XGTACX_site8186],6.39
4,AAGAAAAGCATAGATGCACACATATATATATATATA [CACACA_site8675],9.35
5,GCATAATATACTCTTACACACCATTTCTAAATACAT [CACACA_site4912],7.22
6,AAGACAATATATGCAGTGCATATACATACATATATA,8.24
7,AAAAAAAAAAAAAAAAGTACGTATTTTTTTTAAAAT [XGTACX_site2654],6.48
8,ATATATATATATATATGTACATATTTTATTTGAAAT [XGTACX_site7411],9.26
9,ACAGGAAAAAACAATTGTACATGTATATATATATAT [XGTACX_site7677],9.16
10,ATAATATCATCAAACGCACACATACATAAATATATT [CACACA_site5230],7.49
11,ACATATTATATGAATACACACAAAAACTTATCGGTA [CACACA_site3439],6.57
12,TATTTTTATAATATATGTACATATATATATATATTA [XGTACX_site5343],6.49
13,TTTTTTTTTTTTTTTTGTACGTAAAAAAATATATAC [XGTACX_site1290],6.46
14,TTGTTATATTACAGTAGTACATTTAAAATCTACTAC [XGTACX_site2620],6.61
15,ATTTTTATTTACAACCCCAAAAAGGAAAAACATAAA [CACACA_negctrl_site1169],6.62
16,TTACATTATATACATACACACCCACCCACAAAAAAA [CACACA_site8187],9.25
17,AATATTTATACTATAACACACATACAGACAAAAAAA [CACACA_site6396],6.91
18,TATTTTCTTTTTCTTGTACACACATAATATGGATGA [CACACA_site8168],6.96
19,TATTTACATTTATGTGCACACATTCCATTTGAAAGT [CACACA_site1954],11

row,Sequence,gcPBM binding intensity (ln)
1,CGGACATACATAGGAACATGCAAAATTTTTTATTTT [TGCATGCA_site575],6.38
2,AATAGAAAAAAAAAATGTACACATATAAAAGCATAT [XGTACX_site6306],6.84
3,CAAAATAAAAATTAATGTACATAAAAAATGAATATA [XGTACX_site1085],6.68
4,ATAAAATTGTATAACTGTACATATATATATATATAT [XGTACX_site5596],9.39
5,TCTTTGAATTTTTTAACACACACATGGGTGGATATA [CACACA_site8474],6.36
6,TTGAAAATGAAAAAATGTACTTAAAAAAAAGGAACA [XGTACX_site8664],6.61
7,TAAATATTTTTTTAGACACACATATATCTATGATAT [CACACA_site1107],6.23
8,CCCACAAAGGAATATACACACATATATATATATATA [CACACA_site4091],9.37
9,AAAAAAATAATTTGTAGTACGATTCAATGAAAAGGC [XGTACX_site1287],6.66
10,ATACATATATACATATGTACATATATATATATATAT [XGTACX_site8206],9.3
11,TTTTTTCTTAAAGACATATATTTATTTGGTAAAACA [XGTACX_negctrl_site243],6.04
12,GGATATAACAGACACACACACACATATAAATATATT [CACACA_site7866],6.97
13,ATGCTATATTAAAAACGTACAAACTGTTTAGAAAAA [XGTACX_site8943],6.1
14,AAAAAATAAATAAATACACACACACTAATATATATA [CACACA_site8488],7.3
15,TATATACAAAAAATATGTACATATATATATATATAT [XGTACX_site3497],9.17
16,AGAGATATAAGAAAAGCACACACACCCAAAAAAAAA [CACACA_site8917],6.87
17,ATTATTTATATTATGGTGCATAATTTTGGGTTTCTT,10.4
18,TATTTGTTTTTATATAGTACATAAATATATATATAT [XGTACX_site7834],8.63
